Measured values: the supplement of paper PMC12217912
This is one part of the list. Sequences were assembled here from the parent chain. Values near 0.05 are background.

B1: TEV protease; numbered along this chain (parent)
chain: MGESLFKGPRDYNPISSSICHLTNESDGHTTSLYGIGFGPFIITNKHLFRRNNGTLVVQSLHGVFKVKDTTTLQQHLVDGRDMIIIRMPKDFPPFPQKLKFREPQREERICLVTTNFQTKSMSSMVSDTSCTFPSGDGIFWKHWIQTKDGQCGSPLVSTRDGFIVGIHSASNFTNTNNYFTSVPKNFMELLTNQEAQQWVSGWRLNADSVLWGGHKVFMVKPEEPFQPVKEATQL

Variants of: B1
Experiment: raw area under fraction-flipped curve 0-4 h after induction (AUC4h, not background-subtracted), DNA-recorder readout of cleavage of the substrate (dimensionless); higher = more cleavage of the substrate by the protease variant
Conditions: temperature: 34 °C; time window: 0-4 h after rhamnose induction
Method: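 In vivo DNA recorder in E. coli TOP10(DE3) ΔrhaA at 34 °C. Each TEVp single-site mutant (parent TEVp 0) is paired with a single-site variant of the 7-mer TEVs (canonical ENLYFQ|S). The substrate sits between flexible linkers in a Bxb1-sfGFP-TEVs-SsrA fusion, so cleavage stabilises Bxb1 and speeds flipping of a recombination array, read by NGS. The value is the raw area under the fraction-flipped curve over 0-4 h after rhamnose induction (AUC4h), with ≥20 reads per time point. It is not background-subtracted; inactive controls average about 0.047.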
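Further: Bxb1 expression induced with 0.2% (w/v) L-rhamnose at OD600 near 0.5, cultures sampled hourly, flipped fraction per protease–substrate barcode pair counted by paired-end Illumina sequencing.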

Variant | area with substrate EALYFQS | area with substrate ECLYFQS | area with substrate EDLYFQS | area with substrate EELYFQS | area with substrate EFLYFQS | area with substrate EGLYFQS | area with substrate EHLYFQS | area with substrate EILYFQS | area with substrate EKLYFQS | area with substrate EPLYFQS | area with substrate EQLYFQS | area with substrate ESLYFQS | area with substrate EVLYFQS | area with substrate EYLYFQS | area with substrate ELLYFQS | area with substrate EMLYFQS | area with substrate ERLYFQS | area with substrate ETLYFQS | area with substrate EWLYFQS
MGESLFKGPRDYNPISSSICHLTNESDGHTTSLYGIGFGPFIITNKHLFRRNNGTLVVQSLHGVFKVKDTTTLQQHLVDGRDMIIIRMPKDFPPFPQKLKFREPQREERICLVTTNFQTKSMSSMVSDTSCTFPSGDGIFWKHWIQTKDGQCGSPLVSTRAGFIVGIHSASNFTNTNNYFTSVPKNFMELLTNQEAQQWVSGWRLNADSVLWGGHKVFMVKPEEPFQPVKEATQL [D161A] | 0.0637 | 0.0578 | 0.0695 | 0.0274 | 0.0469 | 0.0725 | 0.0849 | 0.0539 | 0.0484 | 0.0596 | 0.0658 | 0.0585 | 0.0623 | 0.07 |  |  |  |  | 
MGESLFKGPRDYNPISSSICHLTNESDGHTTSLYGIGFGPFIITNKHLFRRNNGTLVVQSLHGVFKVKDTTTLQQHLVDGRDMIIIRMPKDFPPFPQKLKFREPQREERICLVTTNFQTKSMSSMVSDTSCTFPSGDGIFWKHWIQTKDGQCGSPLVSTRWGFIVGIHSASNFTNTNNYFTSVPKNFMELLTNQEAQQWVSGWRLNADSVLWGGHKVFMVKPEEPFQPVKEATQL [D161W] | 0.0662 | 0.0624 | 0.0485 | 0.0868 |  | 0.0572 | 0.0494 | 0.0629 | 0.0619 | 0.0544 | 0.0447 | 0.0559 | 0.0598 |  | 0.0444 | 0.0603 | 0.0395 | 0.0566 | 0.0477
MGESLFKGPRDYNPISSSICHLTNESDGHTTSLYGIGFGPFIITNKHLFRRNNGTLVVQSLHGVFKVKDTTTLQQHLVDGRDMIIIRMPKDFPPFPQKLKFREPQREERICLVTTNFQTKSMSSMVSDTSCTFPSGDGIFWKHWIQTKDGQCGSPLVSTRDPFIVGIHSASNFTNTNNYFTSVPKNFMELLTNQEAQQWVSGWRLNADSVLWGGHKVFMVKPEEPFQPVKEATQL [G162P] | 0.0656 | 0.0663 | 0.0853 | 0.0684 | 0.064 |  |  | 0.0656 | 0.0522 | 0.0595 | 0.0359 | 0.0667 | 0.0541 |  |  | 0.0709 | 0.0702 |  | 
MGESLFKGPRDYNPISSSICHLTNESDGHTTSLYGIGFGPFIITNKHLFRRNNGTLVVQSLHGVFKVKDTTTLQQHLVDGRDMIIIRMPKDFPPFPQKLKFREPQREERICLVTTNFQTKSMSSMVSDTSCTFPSGDGIFWKHWIQTKDGQCGSPLVSTRDGFDVGIHSASNFTNTNNYFTSVPKNFMELLTNQEAQQWVSGWRLNADSVLWGGHKVFMVKPEEPFQPVKEATQL [I164D] | 0.0508 | 0.0571 | 0.0688 | 0.0565 |  | 0.0646 | 0.065 | 0.0512 | 0.0607 | 0.0676 |  | 0.05 | 0.0632 |  | 0.0715 | 0.065 | 0.0584 |  | 0.0524
MGESLFKGPRDYNPISSSICHLTNESDGHTTSLYGIGFGPFIITNKHLFRRNNGTLVVQSLHGVFKVKDTTTLQQHLVDGRDMIIIRMPKDFPPFPQKLKFREPQREERICLVTTNFQTKSMSSMVSDTSCTFPSGDGIFWKHWIQTKDGQCGSPLVSTRDGFIRGIHSASNFTNTNNYFTSVPKNFMELLTNQEAQQWVSGWRLNADSVLWGGHKVFMVKPEEPFQPVKEATQL [V165R] | 0.0566 | 0.0487 | 0.0444 | 0.0668 |  | 0.0511 |  | 0.0139 | 0.049 | 0.0447 | 0.0479 | 0.0475 | 0.0485 | 0.0326 | 0.0487 | 0.0588 | 0.0528 | 0.0223 | 
MGESLFKGPRDYNPISSSICHLTNESDGHTTSLYGIGFGPFIITNKHLFRRNNGTLVVQSLHGVFKVKDTTTLQQHLVDGRDMIIIRMPKDFPPFPQKLKFREPQREERICLVTTNFQTKSMSSMVSDTSCTFPSGDGIFWKHWIQTKDGQCGSPLVSTRDGFITGIHSASNFTNTNNYFTSVPKNFMELLTNQEAQQWVSGWRLNADSVLWGGHKVFMVKPEEPFQPVKEATQL [V165T] | 0.079 | 0.0767 | 0.0867 | 0.109 | 0.0739 |  | 0.0788 | 0.0413 | 0.068 | 0.0754 | 0.0684 | 0.0743 | 0.0977 | 0.0589 |  | 0.11 | 0.0724 | 0.0717 | 
MGESLFKGPRDYNPISSSICHLTNESDGHTTSLYGIGFGPFIITNKHLFRRNNGTLVVQSLHGVFKVKDTTTLQQHLVDGRDMIIIRMPKDFPPFPQKLKFREPQREERICLVTTNFQTKSMSSMVSDTSCTFPSGDGIFWKHWIQTKDGQCGSPLVSTRDGFIVAIHSASNFTNTNNYFTSVPKNFMELLTNQEAQQWVSGWRLNADSVLWGGHKVFMVKPEEPFQPVKEATQL [G166A] | 0.0605 | 0.0494 | 0.0503 | 0.0938 |  | 0.0643 |  | 0.0421 | 0.0467 | 0.049 | 0.046 | 0.0533 | 0.0469 |  | 0.0331 | 0.0537 | 0.0545 |  | 0.0499
MGESLFKGPRDYNPISSSICHLTNESDGHTTSLYGIGFGPFIITNKHLFRRNNGTLVVQSLHGVFKVKDTTTLQQHLVDGRDMIIIRMPKDFPPFPQKLKFREPQREERICLVTTNFQTKSMSSMVSDTSCTFPSGDGIFWKHWIQTKDGQCGSPLVSTRDGFIVDIHSASNFTNTNNYFTSVPKNFMELLTNQEAQQWVSGWRLNADSVLWGGHKVFMVKPEEPFQPVKEATQL [G166D] | 0.0487 | 0.0437 | 0.0492 | 0.0497 |  | 0.0544 |  | 0.0438 | 0.0526 |  | 0.0646 | 0.0603 | 0.044 | 0.0461 | 0.0492 | 0.0692 | 0.0494 | 0.0479 | 
